Each structure is given as a SMILES string. Over roughly 110,000 compounds, “z-score” has its median near -0.1; the highest 2% begin near 2. This is one part of the list. Calls of active or inactive are those of the source.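 The calls were made as follows: active = z-score in the third read window above 3 or below -3; inactive = the rest.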

The experiment deals with Metabotropic glutamate receptor 8 (Rattus norvegicus) (UniProt P70579). Put plainly: rat mGluR8 modulators via GIRK flux, primary screen, cell-based, thallium flux, HTS (AID 488969). The note with it: HEK293 rat mGluR8, GIRK (G protein-gated inwardly rectifying potassium channel) thallium flux, FluoZin2; at 10 µM; stronger effect = higher value; submaximal glutamate (EC20) added with thallium.
Chain of UniProt P70579 (P70579 whole entry, looked up): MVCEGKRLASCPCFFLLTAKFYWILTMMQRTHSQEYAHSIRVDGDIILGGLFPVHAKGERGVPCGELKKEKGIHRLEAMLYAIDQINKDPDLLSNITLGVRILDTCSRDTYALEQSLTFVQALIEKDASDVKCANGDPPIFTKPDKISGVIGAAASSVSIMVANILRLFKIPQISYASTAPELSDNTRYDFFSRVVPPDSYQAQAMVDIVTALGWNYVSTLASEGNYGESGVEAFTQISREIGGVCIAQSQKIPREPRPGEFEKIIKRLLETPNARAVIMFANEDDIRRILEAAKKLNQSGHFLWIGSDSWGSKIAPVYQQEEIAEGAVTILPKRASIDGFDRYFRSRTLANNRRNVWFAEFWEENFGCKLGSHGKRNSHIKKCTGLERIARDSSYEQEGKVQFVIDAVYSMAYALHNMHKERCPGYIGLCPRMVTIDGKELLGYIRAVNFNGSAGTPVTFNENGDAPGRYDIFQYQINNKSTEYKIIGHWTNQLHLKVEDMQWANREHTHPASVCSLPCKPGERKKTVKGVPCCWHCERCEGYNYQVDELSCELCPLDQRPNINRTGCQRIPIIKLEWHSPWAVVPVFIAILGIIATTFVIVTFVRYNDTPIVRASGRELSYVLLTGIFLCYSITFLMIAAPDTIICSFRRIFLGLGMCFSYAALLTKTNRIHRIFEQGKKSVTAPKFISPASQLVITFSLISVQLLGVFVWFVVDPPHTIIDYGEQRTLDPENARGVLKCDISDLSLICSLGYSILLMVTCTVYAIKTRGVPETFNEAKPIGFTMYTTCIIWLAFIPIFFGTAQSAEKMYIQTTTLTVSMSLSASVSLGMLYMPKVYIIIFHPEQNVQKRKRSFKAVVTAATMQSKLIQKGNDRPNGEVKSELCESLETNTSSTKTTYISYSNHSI
`CCC(C)c1ccc2oc(-c3ccc(NC(=O)c4ncn[nH]4)cc3)nc2c1` (centres undefined) came in with a z-score of -0.184.

On to `CCOC(=O)C(Sc1nnc2c3ccccc3n(CC)c2n1)C(=O)OCC`, for which the z-score is -1.73.

Compound `O=C(Cn1nc(Cc2cccnc2)c2ccccc2c1=O)Nc1ccc2c(c1)OCO2` yielded a z-score of -0.0637.

On to `CC(C)CCOc1ccc(C(=O)C[N+]2(C)CCOCC2)cc1`, for which the z-score was 0.236.

For `Cn1cc(SCC(=O)N2CCN(c3ccccc3)CC2)c2ccccc21`, the z-score was -0.202.

As for `Cc1oc(-c2ccccc2)nc1Cn1cccc1C1=NC(c2ccccc2)CO1` (centres undefined), the z-score worked out at 0.517.

`O=C(NCc1ccco1)c1cc(C(=O)C2CCCCC2)c[nH]1` came in with a z-score of -0.0253.

For the compound `COC(=O)NNC(=O)c1ccc(Cl)cc1Cl`, the z-score is -0.27.

As to `CCOCCc1nnc(NC(=O)c2ccc(OC)c(OC)c2)s1`, the z-score is 0.0276.

Compound `COc1ccc(C(=O)/C=C/c2ccc(OC)c(COc3ccccc3F)c2)cc1` displayed a z-score of -0.224.

In turn, `COc1ccc(C(=O)c2sc(Nc3cccc(OC)c3)c(C(=O)Nc3cccc(C)c3C)c2N)cc1` came in with a z-score of -0.228.

`CCOC(=O)C1CCN(S(=O)(=O)c2ccc(C(=O)OC)cc2)CC1` had a z-score of 0.0234.

In turn, `Cc1ccc(CSc2nnnn2C)cc1` had a z-score of -0.0724.

With `COc1cc(/C=C2\S/C(=N/S(=O)(=O)c3ccccc3)NC2=O)c([N+](=O)[O-])cc1OC`, the z-score was -1.25.

In the case of `Cc1ccc(S(=O)(=O)N2CCOCC2)cc1NC(=O)CN1CCN(c2ccc(O)cc2)CC1`, the z-score was -0.162.

`COc1cccc(CNCC(O)(c2ccc(Cl)cc2)c2ccc(Cl)cc2)c1`: the z-score was -0.327.

Compound `O=C(NCCCN=C1NS(=O)(=O)c2ccccc21)c1ccco1` returned a z-score of -0.143.

Compound `Cc1cccc(C)c1NC(=O)C1(N(Cc2ccco2)C(=O)c2ccccn2)CCCC1` had a z-score of 0.0787.

For the compound `Cc1cc(Oc2ccc(C)c(Cl)c2)nc(SCC(=O)c2ccccc2)n1`, the z-score was -0.36.

The compound `O=C(Nn1c(=O)[nH]c2ccsc2c1=O)c1ccccc1` had a z-score of 0.125.

Regarding `COc1cc2c(cc1NC(=O)C(C)Sc1nc3ccccc3n1C)oc1ccccc12` (centres undefined), the z-score is -0.642.

The compound `Cc1ccc(C(=O)NCc2ccc3c(c2)OCO3)cc1N1CCCC1=O` came in with a z-score of -0.117.

In turn, `CC(C)CNC(=O)CSc1nnc(-c2cccc(S(=O)(=O)N3CCCCC3)c2)o1` came in with a z-score of 0.198.

`COc1ccc(-c2nnc3c4ccccc4c(C)nn23)cc1S(=O)(=O)N1CCN(CCO)CC1` yielded a z-score of -0.411.

On to `N#Cc1c(-c2ccccc2)ccn(Cc2ccc(Cl)cc2)c1=O`, for which the z-score was 0.097.

`N#Cc1ccccc1CN1C(=O)S/C(=C/c2cccn2-c2cccc(C(=O)O)c2)C1=O` registered a z-score of -2.19.

The compound `CCCn1c(=O)c(-c2ccccc2)c(O)c2ccccc21` displayed a z-score of 1.54.

For the compound `COc1ccc(Nc2cc(C(=O)NCc3ccco3)c3ccccc3n2)cc1`, the z-score was -0.00632.

In turn, `O=C(c1ccco1)N1CCN(C(c2coc3ccc(Cl)cc3c2=O)c2nnnn2C2CCCC2)CC1` (centres undefined) gave a z-score of -0.379.

Compound `CN(C)NC(=S)Nc1ccc(Cl)cc1` showed a z-score of -0.117.

For `CC(=O)Nc1ccc(S(=O)(=O)NCc2cn3ccsc3n2)cc1`, the z-score was determined as 0.124.

`COn1c(SCc2ccc(Cl)cc2)nc2ccccc2c1=O` registered a z-score of 0.722.

`COC(=O)c1ccc(NC(=O)CCn2cccc2)cc1`: the z-score is -0.418.

`C=CCN(CC=C)S(=O)(=O)c1ccc(NC(=S)NC(=O)/C=C/c2cccc3ccccc23)cc1`: the z-score stood at 0.0256.

Take `COc1ccc(S(=O)(=O)N2Cc3ccccc3CC2C(=O)N2CCOCC2)cc1OC` (centres undefined): the z-score is -0.288.

`CN(CC(=O)NCc1ccccc1)S(=O)(=O)c1cnc[nH]1` showed a z-score of 0.053.

As for `C/C(N)=C(/C#N)C(=O)CSc1nnnn1-c1ccc(C)cc1`, the z-score was found to be 0.331.

Compound `CC1(C)Cc2ccccc2C(N)=C1C#N` had a z-score of -0.448.

`CC(=O)OC(C(=O)NCc1ccco1)c1cccnc1` (centres undefined): the z-score came to 0.298.

For `O=C(NNC(=O)c1sccc1-n1cccc1)c1ccc(Cl)cc1`, the z-score was active: 3.06.

With `COc1ccc(C(=O)OC2CCN(c3ncc(C(F)(F)F)cc3Cl)CC2)cc1`, the z-score was -0.0959.

On to `COc1ccc(CNc2cc([N+](=O)[O-])ccc2OC)cc1`, for which the z-score was -0.252.

The compound `CCn1c(SCCN2CCCCC2)nnc1-c1ccc(S(=O)(=O)N2CCOCC2)cc1` had a z-score of -0.238.

On to `CCCNC(=O)CCC(=O)Nc1ncc(-c2ccc(C)cc2)n1C`, for which the z-score was -0.382.

Compound `Cc1nnc(NC(=O)Cn2cnc3c2c(=O)n(C)c(=O)n3C)s1` registered a z-score of -0.0583.

Regarding `c1ccc(-c2nnc3n2CCCC3)cc1`, the z-score is -0.78.

In turn, `CC(=O)C1=C(O)C(=O)N(c2cccc(C(=O)O)c2)C1c1ccccc1F` (centres undefined) showed a z-score of -0.361.

In the case of `O=C(CCN1C(=O)/C(=C/c2cccc(Br)c2)SC1=S)NNC(=O)c1cccnc1`, the z-score was -0.178.

In turn, `O=C1c2ccccc2C(=O)c2c1ccc1c(=O)n(C3CCCCC3)[nH]c21` came in with a z-score of -0.0596.

Compound `COc1ccc(NC(=O)/C(C#N)=C\C=C\c2ccco2)cc1` registered a z-score of 0.388.

For the compound `CON1C(=O)C(=O)N(OC)C(C)(C)C1C` (centres undefined), the z-score was 0.138.

The compound `CCC(C)N1CC23C=CC(O2)C(C(=O)OCc2ccccc2)C3C1=O` (centres undefined) had a z-score of 0.179.

Consider `CCOc1nc(-c2ccc(OC)cc2)ccc1-c1noc(-c2cccnc2)n1`, for which the z-score is -0.336.

`O=C(Cn1nnc2ccccc2c1=O)NC1CCCc2ccccc21` (centres undefined) displayed a z-score of 0.15.

Take `COc1ccc(-c2cc(C(F)F)n3ncc(C(=O)N4CCN5CCCC5C4)c3n2)cc1` (centres undefined): the z-score was -0.466.

`Cc1cc(C)c2c(=O)[nH]c(SCC(=O)c3ccc(C(C)C)cc3)nc2n1`: the z-score was 0.152.

For `CCCNC(=O)c1n[nH]c(=O)c2ccccc12`, the z-score was -0.0463.

`Cc1ccccc1N1C(=O)CN(Cc2sccc2C)C1=S` had a z-score of -0.181.

Turning to `CCOc1ccc(C2CC(c3ccc(Br)cc3)Nc3nc(N)nn32)cc1` (centres undefined), the z-score turned out to be 0.375.

On to `Cc1cc(N2CCOCC2)nc2ccccc12`, for which the z-score is -0.0968.

The compound `CNC(=O)c1c(C)nc(SCC(=O)NCc2ccc(OC)cc2)c(C#N)c1-c1ccco1` returned a z-score of 0.161.

`COc1ccc(S(=O)(=O)Nc2ccc3c(c2)OCO3)cc1OC` had a z-score of 0.772.

Turning to `COc1cc2ncnc(NCc3ccc(C)cc3)c2cc1OC`, the z-score is -0.387.

The compound `COc1ccc(/C=C/C(=O)c2ccc(C)c([N+](=O)[O-])c2)cc1O` gave a z-score of -0.153.

`O=c1[nH][nH]c(C(F)(F)F)c1C=Nc1cccc(Cl)c1` gave a z-score of 0.34.

With `Cc1ccc(N2CC(C(=O)N/N=C/c3sccc3C)CC2=O)cc1` (centres undefined), the z-score is active: 3.3.

`CC(=O)C1=C(O)C(=O)N(c2ccc(S(N)(=O)=O)cc2)C1c1ccc([N+](=O)[O-])cc1` (centres undefined): the z-score came out at 0.114.

For the compound `CCOC(=O)N1CCC(NC(=O)c2ccc(CNS(=O)(=O)c3ccc(F)cc3)cc2)CC1`, the z-score is -0.118.

The compound `COc1ccc(-c2cc(-c3ccc(OC)cc3)nc(-c3ccc4c(c3)NC(=O)CO4)c2)cc1` registered a z-score of -0.0143.

The compound `Cc1ccc(-c2cn3cccnc3n2)cc1NC(=O)c1cccs1` registered a z-score of -0.382.

`COc1ccccc1CN(Cc1nc2ccccc2c(=O)[nH]1)S(=O)(=O)c1ccc(C)cc1` showed a z-score of -0.428.

In turn, `CC(C)(C#N)N([O-])C=C[N+](=O)C(C)(C)C#N` registered a z-score of 0.168.

Take `C=C(C)COc1ccc2c3c(c(=O)oc2c1OCC(=C)C)CCC3`: the z-score turned out to be 0.75.

`O=C(Nc1cccc2ccccc12)c1cn(-c2ccccc2)nc1-c1cccs1` came in with a z-score of -0.518.

As to `Cc1ccccc1OCc1nnc(SCC(=O)N2c3ccccc3Sc3ccc(Cl)cc32)o1`, the z-score is -0.448.

As to `O=C1c2ccccc2S(=O)(=O)N1Cc1nnc(-c2ccccc2Br)o1`, the z-score is -2.58.

Take `Cc1cc(C)c(C#N)c(Cl)n1`: the z-score was -0.381.

As for `CCN(CC)CCNC(=O)c1ccccc1N`, the z-score is -0.11.

Take `COc1ccc2c(c1)C(=O)N(c1ccccc1OC)C(=O)C2`: the z-score came out at 0.316.

As for `Cc1c(NC(=O)c2nn3c(C(F)(F)F)cc(-c4ccccc4)nc3c2Cl)c(=O)n(-c2ccccc2)n1C`, the z-score was -0.0759.

Regarding `Cc1c(/C(Cc2ccccc2)=N/O)c2ccccc2n1C`, the z-score is -0.391.

The compound `N=C1S/C(=C\c2ccccc2F)C(=O)N1c1ccc(F)cc1` gave a z-score of -0.0449.

`CCC1=Nc2cc(C(=O)NCc3ccco3)ccc2Sc2ccccc21` registered a z-score of -0.837.

Compound `Cc1ccc(/C=N/NC(=O)CSc2nc3ccccc3n2Cc2ccccc2)o1` gave a z-score of -0.347.

Regarding `CCOC(=O)NC(c1ccccc1)C1CCCCC1=O` (centres undefined), the z-score was -0.571.

`CCCOc1ccc(CC(=O)NCc2ccco2)cc1OC` had a z-score of 0.0321.

As to `Cc1sc2nc(COC(=O)C(NC(=O)c3ccc(Cl)cc3Cl)C(C)C)[nH]c(=O)c2c1C` (centres undefined), the z-score is -0.106.

As for `Cn1c(SCC2CCCO2)nnc1-c1ccncc1` (centres undefined), the z-score was 0.0461.

As to `CC(C)(C)c1ccc(/C=N/NC(=S)NCc2ccccc2)cc1`, the z-score amounted to 0.0573.

Regarding `COc1ccc(C(=O)NNC(=O)CCC(=O)Nc2cc(C)on2)cc1`, the z-score is -0.0863.

The compound `CC(=O)Nc1cccc2c1C(=O)N(c1ccc(C)cc1)C2=O` displayed a z-score of 0.845.

Consider `O=C(CSc1ncnc2sc3c(c12)CCCCC3)NCc1ccco1`, for which the z-score came out at 1.08.

On to `O=C(Nc1nc(SCc2ccc(F)cc2)ns1)c1ccco1`, for which the z-score is -0.506.

With `O=C(OCCCN1CCCC1)C1(c2ccccc2)CCCC1`, the z-score was found to be 0.0806.

`CCn1cc(S(=O)(=O)CC(=O)Nc2ccc3c(c2)OCCO3)c2ccccc21` registered a z-score of -0.274.

For `O=C(Cc1ccccc1)n1nc(-c2ccccc2)nc1NCc1ccco1`, the z-score was -0.16.

Take `Cc1ccc(C(=O)NNC(=S)NC(=O)COc2ccccc2)cc1`: the z-score was active: 6.25.

Regarding `Cc1cc(NC(=O)c2c(F)cccc2Cl)n(-c2nc3ccccc3[nH]2)n1`, the z-score was active: 3.06.

Consider `O=S(=O)(c1ccc2oc3ccc(S(=O)(=O)N4CCCC4)cc3c2c1)N1CCCC1`, for which the z-score came out at 0.586.

Consider `Cc1nc2ccccc2nc(C)c1=NO`, for which the z-score was determined as 0.278.

`CCOC(=O)C1=C(CNCc2ccc(C)cc2)NC(=O)NC1c1ccc(OC)cc1` (centres undefined): the z-score was -0.397.

Consider `O=C(CSc1nnc2c3cc(F)ccc3nc(-c3ccccc3)n12)N1CCOCC1`, for which the z-score came out at 0.0643.

Take `CCN1C(=O)C2(C(C#N)=C(N)Oc3n[nH]c(COC)c32)c2ccccc21` (centres undefined): the z-score is -0.00725.

The compound `CCN(CC)C(=O)/C(NC(=O)c1ccccc1)=C(/Sc1ncccn1)c1ccccc1` registered a z-score of -0.112.

In turn, `Cc1ccc(Cl)c2c1NC(=O)C2(O)CC(=O)c1ccc(F)cc1` (centres undefined) returned a z-score of -0.203.

For the compound `Cc1nn(-c2ccccc2)c2sc(C(=O)OCc3nnc(-c4ccccc4)o3)cc12`, the z-score is -0.124.

In turn, `Cc1nc(OCC(=O)c2ccc(Cl)cc2)c(C#N)c2c1COC(C)(C)C2` returned a z-score of 0.572.

Compound `Cc1ccc(C(=O)/C=C/c2ccc(Br)cc2)o1` had a z-score of -0.27.

`CC(=O)NC12CC3CC(C1)CC(C(=O)OCC(=O)Nc1ncc(Cl)cc1Cl)(C3)C2` yielded a z-score of 0.854.

Values taken from PubChem BioAssay AID488969 (Vanderbilt High Throughput Screening Facility, 2010).
